Source: PubChem BioAssay AID588591 (National Center for Advancing Translational Sciences (NCATS), 2011)
The campaign covered roughly 390,000 compounds. About 4,700 (1.2%) were called active. Another 4% or so got no clear call; they are omitted. The call rests on the fitted dose curve; in most records, active means well fitted inhibition curve with a large enough effect; inconclusive means small, poorly fitted or top-dose-only effect, or another doubt; inactive means no such curve, though single readings can be large or run the other way. Only a part is listed here, and it is no random draw.

What follows are compounds tested against DNA polymerase eta (Homo sapiens) (UniProt Q9Y253) (assay: qHTS for Inhibitors of Polymerase Eta). Details: recombinant Pol eta, fluorescent DNA replication assay; series mostly up to 114 µM; activity change, negative = inhibition: at the top concentration.
UniProt Q9Y253, sequence (Q9Y253 whole entry, looked up): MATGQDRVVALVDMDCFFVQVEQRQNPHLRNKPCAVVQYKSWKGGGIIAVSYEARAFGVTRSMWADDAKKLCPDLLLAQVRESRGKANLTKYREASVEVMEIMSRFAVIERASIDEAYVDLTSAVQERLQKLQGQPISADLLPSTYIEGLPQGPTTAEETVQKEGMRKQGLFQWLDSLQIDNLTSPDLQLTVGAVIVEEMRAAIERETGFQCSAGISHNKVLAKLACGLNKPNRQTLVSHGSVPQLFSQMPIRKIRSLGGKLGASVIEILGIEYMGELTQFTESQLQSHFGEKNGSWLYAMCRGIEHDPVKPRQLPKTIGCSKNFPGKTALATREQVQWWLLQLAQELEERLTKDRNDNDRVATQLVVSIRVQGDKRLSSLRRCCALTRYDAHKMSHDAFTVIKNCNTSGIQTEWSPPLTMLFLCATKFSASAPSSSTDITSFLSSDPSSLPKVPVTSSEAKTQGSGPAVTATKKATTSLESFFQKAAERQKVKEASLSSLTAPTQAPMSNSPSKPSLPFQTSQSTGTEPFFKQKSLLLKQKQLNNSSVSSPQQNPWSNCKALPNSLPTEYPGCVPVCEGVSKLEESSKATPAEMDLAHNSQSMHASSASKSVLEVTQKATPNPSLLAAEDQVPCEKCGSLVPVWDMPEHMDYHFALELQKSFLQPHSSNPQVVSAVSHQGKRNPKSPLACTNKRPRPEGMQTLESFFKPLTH
Outline: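 Pol eta (10 nM) was preincubated with compounds for 15 min at room temperature, after which fluorescent replication substrate (50 nM final) was added to start the reaction. Fluorescence was read kinetically at 0 and 10 min.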
On the % scale 0 is the no-effect control and ±100 the full control effect; potency means the concentration at half of the fitted maximal effect.

Compound	activity change, negative = inhibition	Potency
O=C(CCCN1C(=O)/C(=C\c2cccs2)SC1=S)NNC(=O)c1cccnc1	inactive: -14.3%	
NNC(=O)[C@H]1C[C@@H]1c1ccccc1	inactive: -7.59%	
CC[C@H](C)/C=C/C1=CC2=C(Cl)C(=O)[C@@]3(C)OC(=O)C(C(=O)[C@H](C)[C@@H](C)O)=C3C2=CO1		active: 17.8 µM
O=C(O)c1cccc(-n2cccc2/C=N/O)c1		active: 3.16 µM
O=C1/C(=C\c2ccccn2)SC(=S)N1c1ccc(S(=O)(=O)Nc2nccs2)cc1		active: 17.8 µM
Cc1ccc(NC(=O)NCC2CCN(Cc3cccc(Cl)c3)CC2)cc1Cl	inactive: -9.19%	
CCc1ccc(-n2c(SCC(=O)N3Cc4ccccc4CC3C(=O)O)nnc2-c2ccncc2)cc1 (centres undefined)		active: 22.4 µM
O=C(O)CCN1C(=O)/C(=C\c2cccc(Oc3ccccc3)c2)SC1=S		active: 39.8 µM
Cc1c(CCOC(=O)c2ccc(N3CCOCC3)c([N+](=O)[O-])c2)sc[n+]1CC#N		active: 50.1 µM
CC(=O)C[C@@H](O)CC(=O)[C@@H]1OC(=O)[C@@H](C)C/C=C\Cc2ccccc21	inactive: -11.8%	
NCCCC[C@H]1NC(=O)[C@H](CCC(=O)O)NC(=O)c2cc([N+](=O)[O-])cc(I)c2OCC[C@@H](C(N)=O)NC1=O	inactive: -98.3%	
Cc1ccc(C(=O)N/C(=C\c2ccc(Cl)cc2)C(=O)NC2CCCCC2)cc1	inactive: 18.8%	
Cc1cc(/C=N/NC(=O)C(O)(c2ccccc2)c2ccccc2)c(C)n1-c1cccc(C(=O)O)c1		active: 10 µM
O=c1c2ccccc2nc2c3ccccc3cnn12	inactive: 14.2%	
COc1ccc(C(=O)CC(=O)C(=O)Nc2ccccc2Cl)cc1	inactive: 17.6%	
N=C1/C(=C\c2ccc(Br)o2)C(=O)N=C2SC(CC(=O)N3CCOCC3)=NN12		active: 17.8 µM
CC(=O)N1CCc2c(sc(NC(=O)C3COc4ccccc4O3)c2C(N)=O)C1 (centres undefined)		active: 22.4 µM
COc1cc(C2Oc3cc(C4Oc5cc(O)cc(O)c5C(=O)C4O)ccc3OC2CO)ccc1O (centres undefined)	inactive: -6.17%	
C/C=C(/C)C(=O)OC1CC(C)(C)C[C@H]2C3=CC[C@@H]4[C@@]5(C)CCC(O[C@@H]6O[C@@H](C(=O)O)[C@@H](O)C(O[C@@H]7OC[C@H](O)[C@@H](O)[C@@H]7O[C@@H]7OC(CO)C(O)[C@@H](O)[C@@H]7O)C6O[C@@H]6OC(CO)C(O)C(O)C6O)[C@@](C)(CO)[C@@H]5CC[C@]4(C)[C@]3(C)CC(O)[C@@]12CO (some centres undefined)	inactive: -7.62%	
CC1=C(/C=C/C(C)=C/C=C/C(C)=C/C(=O)O)C(C)(C)CCC1		inactive
COc1cccc2cc(C(=O)C3=C(O)C(=O)N(Cc4ccco4)C3c3cccnc3)oc12 (centres undefined)		active: 3.55 µM
Cc1ccc(C(=O)Oc2cc(-c3ccc4c(c3)OCO4)cc(=O)c3c(C)oc(C)c23)cc1		active: 79.4 µM

Compound	activity change, negative = inhibition	Potency
C=CC[C@@H](CC(=O)N(CCO)Cc1ccccc1)C(=O)N[C@H](COC(=O)[C@@H](CC=C)CC(=O)OC(C)(C)C)c1ccccc1	inactive: -29.6%	
C=CC[C@@H](CC(=O)N(CCO)Cc1ccccc1)C(=O)N[C@H](COC(=O)[C@H](CC=C)CC(=O)OC(C)(C)C)Cc1c[nH]c2ccccc12	inactive: -25.9%	
CCOC(=O)c1c(NS(=O)(=O)c2ccc(Br)cc2)sc2c1CCC2		active: 20 µM
Cc1ccc(Cl)cc1NC(=O)c1ccc(NC(=O)CCC(=O)O)cc1	inactive: -0.158%	
Cc1ccc(NC(=O)CCCn2c(=O)c3cccn3c3cccnc32)cc1C	inactive: 15.8%	
O=C1NC(=S)S/C1=C\C=C\c1ccc([N+](=O)[O-])o1		active: 2.24 µM
C/C(=N\NC(=O)Cn1cc([N+](=O)[O-])cn1)c1ccco1	inactive: 39.6%	
COc1ccccc1NC(=O)/C(C#N)=C/c1cccn1C	inactive: 16.1%	
CCCCCCCCCCCCCCCC(O)C(N)CO (centres undefined)	inactive: -9.43%	
CN(c1ccccc1)S(=O)(=O)c1nnc(NC(=O)c2ccco2)s1	inactive: -19%	
CC1=NN(c2ccc(C)c(C)c2)C(=O)/C1=C\C=C\c1ccc([N+](=O)[O-])o1		active: 39.8 µM
Cc1ccc(N2C(=O)CC(N3CCN/C3=C3\CC/C(=C\c4ccccc4)C3=O)C2=O)cc1 (centres undefined)	inactive: 17.1%	
CC(=O)Nc1ccc(NC(=O)c2cc(=O)c3ccccc3o2)cc1	inactive: -10.6%	
O=C(NCc1nnc(SCc2ccc(C(F)(F)F)cc2)n1-c1ccccc1)C12CC3CC(CC(C3)C1)C2	inactive: -24.6%	
CC1=C(C(=O)Nc2ccc(C)cc2C)C(c2ccc(Cl)cc2)n2nc(C(=O)OC(C)C)nc2N1 (centres undefined)	inactive: -2.77%	
CNc1ccc(Br)cc(C(=O)/C=C/c2cc(OC)ccc2OC)c1=O		active: 14.1 µM
O=C(O)C1=C(C(=O)O)C2CCC1C2		active: 17.8 µM
Cc1cc(C(F)F)nn1CC(=O)NC1C(=O)N2C(C(=O)O)=C(CSc3nnnn3C)CSC12 (centres undefined)		active: 28.2 µM
CCN1C(=O)[C@@H]2[C@@H](c3ccc(-c4ccc(C(C)=O)cc4)cc3)N3CCC[C@@]3(C(=O)OC)[C@@H]2C1=O	inactive: -9.8%	
O=C1N/C(=N/NC(=O)c2cccc3ccccc23)S/C1=C\c1ccccc1OCc1ccccc1		active: 22.4 µM
CC(C)Oc1ccc(CNS(=O)(=O)c2csc(C(N)=O)c2)cc1	inactive: 2.32%	
C[C@H](CO)N1C[C@H](C)[C@H](CN(C)C(=O)Nc2cccc(Oc3ccccn3)c2)OCc2cnnn2CCCC1=O	inactive: -9.72%	
